Assay results taken from the RNAGym collection of RNA variant scans (doi:10.7554/elife.90254).
The source gives no read counts; variants with many changes may rest on few reads.

B1: LINE1-full (parent)
chain: UACGUAGGUGGUUUUCCCCUGAUAGUGCUAAGGGGGCCUGGAAGUUUGGACUGGGCAGAGCUCAACACAGCGUGGCAAAGUGGCUGUGGCUAGACUGCCUCUCUGGAUUCCUCGUCACUCAGCAGGGCAUCUCUGAGAGAAAUGCC

Variants of: B1
Experiment: self-cleavage, relative activity (ratio to wild type); higher = more cleavage; in vitro, sequencing; the parent is a self-cleaving ribozyme

Variant | self-cleavage
U9A A64U U91C U102C | 0.39
U9A U13C A129G | 1.6
G7C C19G A78G A121U | 1.2
U9C G27A U87C | 0
G7U U20A G83A U87C C113A A129G | 0.1
U9A U46A U109C U119A G127A | 1.19
G7A U14C C99U | 0.58
G7U U26G U39C U47A G54A U91C A138G | 0.17
U9C A64U A92G U100C | 0.64
G7A G49A A50G A57C C63A | 0.09
G8A C19U U46A A57U | 0.12
U9A A78G U91A | 0.48
U9C U14C U39G A129U | 1.23
U9A U62C U132A | 0.16
U9A U47A U85C | 0.18
U9A G53A A78G C118U | 1.46
U9A A43G A141G | 1.15
U9C A94G U104C | 0.4
U9A U15C A77G U91A A129G U143C | 1.84
G8C A117U A129G | 1.71
U9A G89A A129G A138G | 0.07
U9C C66A C118U A141G | 0.3
U9A U14C U39C U85A | 0.23
U9A U23C U29C U109A | 2.18

Variant | self-cleavage
U9A U26C U47C C63U A117G | 0.31
G8A G27A G72A A92G C110U | 0.08
U9C G82U U102C | 1.5
U9C A31U U85A U102C U108A U109C | 0
G8C G36C U108A U132C A138U U143C | 2.35
U9C A65U U112A A141G | 0.32
U9A A59G U115A G122U | 0.15
U9A G34A U108C | 1.4
U9A A31U G49A U134C A140G U143C | 0.69
U9C G54A G144A | 0.78
G8A U39A A69U U102A G126U A129U U134A | 0.04
G8A U85C U132A | 1.19
U9A U23C A30G C37A A140G | 0.81
U9A A67G A142G | 0.22
U9A U47A A140G | 0.57
G7A U115C U143C | 2.19
U9C A22U C63U A67G U134A | 0.28
G7A G53A A124G U132C | 0.51
U9A G36C A129G | 1.25
U9C A50U G53A A65G G70A U108C G127A | 0.04
U9C A30U A64G U109C | 0.22
U9C A57G U96A | 0.2
U9C A24U A65G | 0
U9C U13C G41A C68A U115A | 0.13

Variant | self-cleavage
U9A U12C U104A | 0.84
U9A U15C U52C U115A | 1.41
G8A G35C A138G | 1.07
U9C A67U U96C A138U | 0.26
U9A G27A A59U | 0.74
U9C U14C G33U A121G | 1.14
U9C U15C A59G U109A U112C U119A | 0
U9A A22G U143C | 0.46
U9C A69G U100C | 0.46
G8U A57G U134C | 1.19
U9A A22G U73C U85A U130C | 0.6
U9C A77C C113A A140G | 0.85
U9C U13A A24G | 1.18
U9C U14C U52C G75A | 1.24
G7A U39C A64U A107G | 0.22
G7A G36A A117G | 1.2
U9C U14C G35A | 1.24
U9A U15C A141G | 0.86
U9A G97A A117G | 0.19
U9C G53U C90U U96A C110U | 0.09
U9C C19U A24U | 1.05
U9A U47A A129G A140G | 1.07
U9C G10U U26A C38U | 0.75
U9C C16U U26A G35U U47A G72U G74U U112C | 0.07

Variant | self-cleavage
U9C A42G A64U A94G C131U | 0.25
U9A C19A U29C A59G A77U | 0.24
U9A U62C A121G | 0.31
U9C A69G A121G A140G | 1.06
U9C A117U A142G | 1.26
G7A A42G A92U A142G | 0.44
U9C A78G U112A | 0.87
U9C A50G U96C | 1.36
U9C U15C A42G U81C U132C | 0
U9A C18U U20A A24G U109C U112C A129G | 0
U9C A69G C116U | 0.56
U9A A59U U85C | 0.46
U9A U14C U45C U81A U96G A124U U132A A140U | 0.55
G7A U85C U87C | 0
U9A A59G U104C | 0.25
U9A U102C G106A | 0.65
U9C A117U A124U A142G | 0
U9C C19U A129G | 1.45
U9A U26C A57G G83A U119C | 0.31
U9A U13C U96C | 0.41
U9C U15A U47A A121U | 0.72
G8C A92U A107G | 1.25
G7A U12G U46A A79G | 0.51
G8A G36C U81A U91A U115C G122A | 0.77

Variant | self-cleavage
U9C A65U G80A U112A | 0.23
U9A U143A C145U | 0.9
G7U U109A U119C U134G A141G | 2
U9A U26C A67G U87A G122A U143C | 0.25
U9A U20A A31G U73A | 0.99
G7A U14C A94G | 0.31
U9A U13C A69G | 0.6
U9C G25U U45C A129G U130C | 1.67
U9C G41U U46C A57G U91C C110U | 0.09
G8C U47C U119C A142G | 1.23
G7C A64U U73C | 1.53
U9A C37U U109C A129U | 1.32
U9C U13C U108A A121G | 1.08
U9A U14C U81A U87C U115A U134C | 0.66
G7A U13C U104C | 0.73
U9C C19U U26A A31G U112A | 0.84
U9C A57U C128U U134C | 0.11
U9C A43G U102A U108C U119C | 0
U9A A24G A30G | 1.35
U9C A22G A142G | 0.6
G7A A30U U87C | 0.17
U9A A129U A142G | 2.3
G8A A42U U52A | 0.96
U9C C37U U47C A64U U104A U115C | 0.55

Variant | self-cleavage
G7U U39C A78G A117G | 0.42
G7A A57G A69G | 0.4
G7A U9C G89U | 0.08
U9C G114A A129G | 0.78
U9A U23A G74A A124G U130C U134C | 0.99
U9C U14C A121G A142G | 1.02
U9C C68U A107G A138U | 0.19
G7U U47C A69G A77U | 0.84
U9C A31U U47A A77G U102C U108C | 1.84
U9A U81C G83A A140G | 0.56
U9A A64G C95U | 0.06
U9A U20C A57G U85A | 0.05
G7U U14C U85C | 0.32
U9A U14C G21A A30U U52C U81A | 0.77
G7A U12C A42U | 1.1
U9A U20C U73A U130C | 1.61
U9C A31U U45C U73A U81C U119C | 0.48
G7A A31U G41A A59C U112C | 0.84
U9A U47C A57C U130A | 0.18
U9C G33A A78G | 0.96
U9A U47C U100A U134C | 0.82
U9A U45C G74U A117G | 0.84
G8A U46C G122U | 1.37
U9C U12G A31G A121U | 0.26

Variant | self-cleavage
U9C A22G A42G | 0
U9A U29A U46A A77U A79G G97A A107G | 0.04
U9C G53C C110A | 0.51
G7A U46C A78G | 1.17
G8A A78G U104C U132C | 1.65
U9A U73C A140G | 0.44
U9A U46G A50U A59U U134A | 0.44
G8A U23C U108C U134A | 1.65
U9C A57U U108C | 0.59
U9A A64U U143A | 0.53
U9A U47C A59G | 0
U9C G49U C61U A69G U108C | 0.03
U9A A22G G60A | 0.14
U9A U20C U91C | 0.76
U9A U13C A50G A141G | 1.53
U9C A31G U47A | 1.53
U9A A43G A50U G122U U132C | 0.07
G8A U29A A138G | 1.4
U9A U12C U100A A141U | 0.78
G8A U29A A124G | 0.86
G8A C19U U52C | 0.89
U9C U13A A31U C63A | 0.11
U9A U12C U23C U46A | 2.12
